57 compounds from PubChem BioAssay AID463173 (ICCB-Longwood Screening Facility, Harvard Medical School, 2010) can be followed below.

Hit rate of the full screen: of about 52,000 compounds, about 1,700 (3.3%) were called active. Rule as the data show it: active = survival mostly below about 52% (no sharp cut-off); inactive = mostly above about 56%. This is one part of the list.

In the test the test system is Wild type. Briefly: growth inhibition of S. aureus wild type versus tarO mutant, primary screen, teichoic acid synthesis inhibitors, RN4220, OD600 (AID 463173). The settings on record: S. aureus RN4220 wild type/DeltatarO growth, OD600, 18 h, hits give low values, screened at 18.75 µg/mL (by protocol).
As to `Cc1c(C(=O)OCc2ccccc2)[nH]c2c1C(=O)CC(c1ccc(N(C)C)cc1)C2` (configuration not stated), the survival is inactive: 89%.

As for `Cc1ccc(S(=O)(=O)C(CNC(=O)COc2ccccc2)c2cccs2)cc1` (configuration not stated), the survival was inactive: 74%.

For `COc1cccc(-n2c(SCC(=O)c3ccccc3)nc3c([nH]c4ccccc43)c2=O)c1`, the survival is inactive: 130%.

For `CCCn1c(COc2cccc(C)c2)nc2ccccc21`, the survival is active: 25%. Take `O=c1oc2cc(O)ccc2cc1-c1nc(-c2ccc(Cl)c(Cl)c2)cs1`: the survival is inactive: 95%. As to `COC(=O)C1=C(C)NC(=O)NC1c1cn(-c2ccccc2)nc1-c1ccc(OC)c(Br)c1` (configuration not stated), the survival was inactive: 74%. `O=C(COCc1cc(-c2cccs2)on1)N1CCN(c2ccc(F)cc2)CC1`: the survival is inactive: 73%. With `O=c1c(=O)n(-c2ccccc2)ccn1Cc1c(F)cccc1Cl` the figure was inactive: 77%; with `CCOc1cccc(NC(=O)c2sc3nc(-c4ccc(F)cc4)ccc3c2N)c1`, inactive: 103%.

Consider `CCSc1ncc(Cl)c(C(=O)N(Cc2ccccc2)c2ccc(OC)cc2)n1`, for which the survival was inactive: 110%. Under `COc1cc(CNCCSc2nnnn2C)ccc1OCc1ccc(C)cc1` stands inactive: 69%. Regarding `Cc1cc(C)cc(N2CC(c3nnc(NC(=O)c4ccco4)s3)CC2=O)c1` (configuration not stated), the survival was inactive: 75%.

For the compound `C#CCn1c(O)c(N=NC(=O)c2cc(OC)c(OC)c(OC)c2)c2ccccc21`, the survival is inactive: 114%. On to `COc1cc(C(=O)Nc2ccc(-n3c(C)nc4ccccc4c3=O)cc2)cc(OC)c1OC`, for which the survival was inactive: 65%. As for `O=C(c1ccccc1)N1CCCC(c2nc3c(nnn3Cc3ccc(F)cc3F)c(=O)[nH]2)C1` (configuration not stated), the survival was inactive: 104%. Under `Cc1nc2cccnc2n1C1CCN(C(=O)Nc2ccccc2)CC1` stands inactive: 85%; under `CCCCn1c(=NC(=O)c2c(-c3c(F)cccc3Cl)noc2C)c(C(=O)OCC)cc2c(=O)n3ccccc3nc21`, inactive: 136%; under `Cc1ccc(-c2noc(-c3ccc(NCc4cccnc4)c([N+](=O)[O-])c3)n2)cc1`, inactive: 110%. In the case of `O=c1c2oc3ccccc3c2n(Cc2ccc(F)cc2)c(=O)n1Cc1ccco1`, the survival is inactive: 87%. Turning to `O=C(NCc1cccc(F)c1)c1ccc(CN2CC(=O)N3CCCCC3C2=O)cc1` (configuration not stated), the survival was inactive: 120%. With `CCOC(=O)C1CCN(C(c2ccc(OCC)cc2)c2c(O)cc(C)n(CCOC)c2=O)CC1` (configuration not stated), the survival is inactive: 93%. `COc1ccc(CNS(=O)(=O)c2cc(Br)cc3c2N(C(C)=O)C(C)C3)cc1` (configuration not stated): the survival was inactive: 138%. For the compound `CCCCc1ccc(-n2nc3cc(Cl)c(NC(=O)c4ccc(OC)cc4)cc3n2)cc1`, the survival is inactive: 66%.

Regarding `CCOC(=O)c1ccc2nc(C)cc(Nc3ccc(OC(C)C)cc3)c2c1`, the survival was inactive: 134%. With `Cc1ccc(-n2cnc3cc(C(=O)NCc4ccc(F)cc4)ccc32)c(C)c1`, the survival is inactive: 73%.

For the compound `Cc1ccc(OC(C)C(=O)N2CCN(CCc3ccncc3)CC2)cc1C` (configuration not stated), the survival was inactive: 88%. With `Clc1ccc2oc(-c3ccccc3)nc2c1` the figure was inactive: 116%. Take `CCOC(=O)c1cccc(NS(=O)(=O)c2ccc3[nH]c4c(c3c2)CCCC4)c1`: the survival is inactive: 87%. Take `CC(Sc1nc2c(c(=O)[nH]1)CCCC2)C(=O)Nc1cc(C(F)(F)F)ccc1Cl` (configuration not stated): the survival is inactive: 66%. In the case of `Cc1cccc(C(=O)NCCc2nc3ccccc3n2Cc2ccc(Cl)cc2)c1`, the survival is inactive: 64%. Take `Cc1cc(NC(=O)CCC(=O)N(c2ccc(F)cc2)C2(C(=O)NC3CCCCC3)CCCC2)no1`: the survival was inactive: 100%. In the case of `CCC(CC)C(=O)Nc1ccccc1SCc1cc(=O)c2cccc(C)c2[nH]1`, the survival is inactive: 72%. On to `COc1ccc2c3c(cccc13)OCC2=O`, for which the survival is inactive: 109%. For the compound `CNC(=S)N(CCO)Cc1cc2cc3c(cc2[nH]c1=O)OCCO3`, the survival was inactive: 110%. For `CC(C)OC(=O)CSc1nnc(-c2ccc(O)cc2)n1-c1ccccc1`, the survival is inactive: 116%. Regarding `COCCCNC(=O)C1CCC(Cn2c(=O)c3sccc3n(C)c2=O)CC1` (configuration not stated), the survival is inactive: 132%. Regarding `Cc1ccc(NC(=O)c2ccc(Cl)cc2Cl)c(C(=O)c2ccccc2)c1`, the survival was active: 1%.

For the compound `O=S(=O)(NCc1ccc(Cl)cc1)c1ccc2[nH]c3c(c2c1)CCCC3`, the survival was inactive: 119%.

With `CCOc1ccc(-c2cc3c(=O)n(Cc4nc(-c5ccccc5OCC)oc4C)ccn3n2)cc1Cl`, the survival is inactive: 146%. Take `Cc1ccc(Cn2c(C)c(CNCC(C)c3ccccc3)c(C(=O)O)c2C)cc1` (configuration not stated): the survival was inactive: 105%. Under `CS(=O)(=O)c1ccc(-c2nn[nH]n2)cc1` stands inactive: 103%; under `Cc1ccc(NC(=O)CN2CCN(c3ccccc3F)CC2)cc1F`, inactive: 73%; under `COc1ccccc1C(=O)NCC(C)(C)CN=C1NS(=O)(=O)c2ccccc21`, inactive: 110%.

In the case of `CCOC(=O)C1CCN(c2nc3c(S(=O)(=O)c4ccccc4)nnn3c3ccc(Cl)cc23)CC1`, the survival was inactive: 136%. With `CCCCc1c(C)nc2c(-c3ccc(Cl)cc3)c(C)[nH]n2c1=O` the figure was active: -13%.

With `CC(C)C(=O)N1CCN(c2ccc(NC(=O)c3ccccc3)cc2)CC1`, the survival is inactive: 95%. Turning to `COc1cc(OC)cc(C(=O)Nc2ccc(-c3nc4cc(C(C)C)ccc4o3)cc2)c1`, the survival was inactive: 62%. `Cc1ccc(C)c(N2CCN(S(=O)(=O)c3ccc(-c4coc(C)n4)cc3)CC2)c1`: the survival was inactive: 68%.

In the case of `COc1ccc(C(=O)c2sc3nc(-c4ccc(C)cc4)cc(C(F)(F)F)c3c2N)cc1`, the survival is inactive: 122%. Take `CCCCN(CCCNC(=O)c1cc(Nc2ccc(OC)cc2)nc2ccccc12)Cc1ccccc1`: the survival is inactive: 81%. For the compound `CCOC(=O)CNc1nc(Cl)nc(Nc2ccccc2)n1`, the survival is inactive: 121%.

`COc1ccc(-n2cc(-c3ccc4c(c3)OCO4)n(CC(=O)Nc3cccc(C)c3C)c2=O)c(OC)c1`: the survival is inactive: 80%. Turning to `CCOC(=O)C(CC)n1nc(C)c2c(C)n(-c3ccc(C)cc3)nc2c1=O` (configuration not stated), the survival is inactive: 119%. For the compound `O=S(=O)(Nc1ccc(F)c(Cl)c1)c1ccc(Br)s1`, the survival is inactive: 40%. `Cc1ccc(S(=O)(=O)c2nc(S(=O)(=O)c3ccc(C)cc3)c(NCCCOC(C)C)s2)cc1`: the survival is inactive: 93%. For `CCOC(=O)c1ccc(N2C(=O)c3n[nH]c(-c4cccs4)c3C2c2ccc(CC)cc2)cc1` (configuration not stated), the survival was inactive: 91%. Consider `O=c1c(S(=O)(=O)c2ccccc2)cn(Cc2ccc(F)cc2)c2cc(N3CCOCC3)c(F)cc12`, for which the survival was inactive: 102%.
